Assay results reported in PMC8347018, “Boosted Pro-Inflammatory Activity in Human PBMCs by Lipopolysaccharide and SARS-CoV-2 Spike Protein Is Regulated by α-1 Antitrypsin †” (International Journal of Molecular Sciences, 2021).

Molecular target: Plasma-purified human α-1 antitrypsin (Respreeza, CSL Behring) (human, UniProt P01009)
Assay: SDS-PAGE of the AAT-elastase complex, Coomassie stain; AAT (0.5 mg/mL, diluted 1 in 25) mixed with porcine pancreas elastase at a molar ratio of 2:1 (AAT:elastase), 30 min at room temperature, in some samples with 10 ng/mL LPS and 12 µg/mL spike; stopped with SDS sample buffer; 7.5% SDS gel (same samples also on 7.5% native gel)
Settings: both partners purified

B1: Porcine pancreas elastase (Sigma-Aldrich) (enzyme, UniProt P00772 27-266, looked up)
chain: VVGGTEAQRNSWPSQISLQYRSGSSWAHTCGGTLIRQNWVMTAAHCVDRELTFRVVVGEHNLNQNDGTEQYVGVQKIVVHPYWNTDDVAAGYDIALLRLAQSVTLNSYVQLGVLPRAGTILANNSPCYITGWGLTRTNGQLAQTLQQAYLPTVDYAICSSSSYWGSTVKNSMVCAGGDGVRSGCQGDSGGPLHCLVNGQYAVHGVTSFVSRLGCNVTRKPTVFTRVSAYISWINNVIASN
notes: porcine pancreas elastase (pancreatic elastase 1), bought enzyme; source: bought: Sigma-Aldrich, Merck
Q: Does B1 bind?
A: binds
